Measured values from the supplement of paper PMC12217912.
Some of the results follow. The full chains were built here from the parent and the listed change. Inactive controls read about 0.05.

B1: TEV protease; numbered along this chain (parent)
chain: MGESLFKGPRDYNPISSSICHLTNESDGHTTSLYGIGFGPFIITNKHLFRRNNGTLVVQSLHGVFKVKDTTTLQQHLVDGRDMIIIRMPKDFPPFPQKLKFREPQREERICLVTTNFQTKSMSSMVSDTSCTFPSGDGIFWKHWIQTKDGQCGSPLVSTRDGFIVGIHSASNFTNTNNYFTSVPKNFMELLTNQEAQQWVSGWRLNADSVLWGGHKVFMVKPEEPFQPVKEATQL

Variants of: B1
Assay: raw area under fraction-flipped curve 0-4 h after induction (AUC4h, not background-subtracted), DNA-recorder readout of cleavage of the substrate (dimensionless); higher = more cleavage of the substrate by the protease variant
Conditions: temperature: 34 °C; time window: 0-4 h after rhamnose induction
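Note: Bxb1 expression induced with 0.2% (w/v) L-rhamnose at OD600 near 0.5, cultures sampled hourly, flipped fraction per protease–substrate barcode pair counted by paired-end Illumina sequencing.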

Variant: MGESLFKGPRDYNPISSSICHLTNESDGHTTSLYGIGFGPFIITNKHLFRRNNGTLVVQSLHGVFKVKDTTTLQQHLVDGRDMIIIRMPKDFPPFPQKLKFREPQREERICLVTTNFQTKSMSSMVSDTSCTFPSGDGIFWKHWIQTKDGQCGSPLVSTRDGFIVGIHSASNFTNTNNYFTSVPKNFMELLTNQEAQQWVSGWRLNADSVLWGGHKVFMVKPEMPFQPVKEATQL [E224M]
- area with substrate EALYFQS: 0.101
- area with substrate ECLYFQS: 0.0717
- area with substrate EELYFQS: 0.12
- area with substrate EILYFQS: 0.0768
- area with substrate EKLYFQS: 0.109
- area with substrate EMLYFQS: 0.0836
- area with substrate EPLYFQS: 0.107
- area with substrate EQLYFQS: 0.0978
- area with substrate ESLYFQS: 0.0817
- area with substrate ETLYFQS: 0.117
- area with substrate EVLYFQS: 0.0791
- area with substrate EWLYFQS: 0.0855
- area with substrate EYLYFQS: 0.0908

Variant: MGESLFKGPRDYNPISSSICHLTNESDGHTTSLYGIGFGPFIITNKHLFRRNNGTLVVQSLHGVFKVKDTTTLQQHLVDGRDMIIIRMPKDFPPFPQKLKFREPQREERICLVTTNFQTKSMSSMVSDTSCTFPSGDGIFWKHWIQTKDGQCGSPLVSTRDGFIVGIHSASNFTNTNNYFTSVPKNFMELLTNQEAQQWVSGWRLNADSVLWGGHKVFMVKPEPPFQPVKEATQL [E224P]
- area with substrate EALYFQS: 0.101
- area with substrate ECLYFQS: 0.0616
- area with substrate EELYFQS: 0.109
- area with substrate EFLYFQS: 0.0755
- area with substrate EKLYFQS: 0.0989
- area with substrate EPLYFQS: 0.0639
- area with substrate ERLYFQS: 0.0869
- area with substrate ESLYFQS: 0.097
- area with substrate ETLYFQS: 0.048
- area with substrate EVLYFQS: 0.0871
- area with substrate EWLYFQS: 0.131

Variant: MGESLFKGPRDYNPISSSICHLTNESDGHTTSLYGIGFGPFIITNKHLFRRNNGTLVVQSLHGVFKVKDTTTLQQHLVDGRDMIIIRMPKDFPPFPQKLKFREPQREERICLVTTNFQTKSMSSMVSDTSCTFPSGDGIFWKHWIQTKDGQCGSPLVSTRDGFIVGIHSASNFTNTNNYFTSVPKNFMELLTNQEAQQWVSGWRLNADSVLWGGHKVFMVKPETPFQPVKEATQL [E224T]
- area with substrate EALYFQS: 0.12
- area with substrate ECLYFQS: 0.103
- area with substrate EDLYFQS: 0.112
- area with substrate EFLYFQS: 0.113
- area with substrate EHLYFQS: 0.102
- area with substrate EILYFQS: 0.0868
- area with substrate EMLYFQS: 0.0718
- area with substrate EQLYFQS: 0.131
- area with substrate EVLYFQS: 0.0605
- area with substrate EWLYFQS: 0.101

Variant: MGESLFKGPRDYNPISSSICHLTNESDGHTTSLYGIGFGPFIITNKHLFRRNNGTLVVQSLHGVFKVKDTTTLQQHLVDGRDMIIIRMPKDFPPFPQKLKFREPQREERICLVTTNFQTKSMSSMVSDTSCTFPSGDGIFWKHWIQTKDGQCGSPLVSTRDGFIVGIHSASNFTNTNNYFTSVPKNFMELLTNQEAQQWVSGWRLNADSVLWGGHKVFQVKPEEPFQPVKEATQL [M219Q]
- area with substrate EALYFQS: 0.121
- area with substrate ECLYFQS: 0.071
- area with substrate EDLYFQS: 0.132
- area with substrate EFLYFQS: 0.0928
- area with substrate EGLYFQS: 0.0838
- area with substrate EILYFQS: 0.124
- area with substrate EKLYFQS: 0.0904
- area with substrate ELLYFQS: 0.104
- area with substrate EMLYFQS: 0.0986
- area with substrate EQLYFQS: 0.116
- area with substrate ERLYFQS: 0.0956
- area with substrate ESLYFQS: 0.0847
- area with substrate ETLYFQS: 0.0983
- area with substrate EVLYFQS: 0.0799
- area with substrate EWLYFQS: 0.0859
- area with substrate EYLYFQS: 0.0825

Variant: MGESLFKGPRDYNPISSSICHLTNESDGHTTSLYGIGFGPFIITNKHLFRRNNGTLVVQSLHGVFKVKDTTTLQQHLVDGRDMIIIRMPKDFPPFPQKLKFREPQREERICLVTTNFQTKSMSSMVSDTSCTFPSGDGIFWKHWIQTKDGQCGSPLVSTRDGFIVGIHSASNFTNTNNYFTSVPKNFMELLTNQEAQQWVSGWRLNADSVLWGGHKVFRVKPEEPFQPVKEATQL [M219R]
- area with substrate EALYFQS: 0.0864
- area with substrate ECLYFQS: 0.0635
- area with substrate EDLYFQS: 0.0918
- area with substrate EFLYFQS: 0.0771
- area with substrate EHLYFQS: 0.0731
- area with substrate EILYFQS: 0.063
- area with substrate EKLYFQS: 0.057
- area with substrate ELLYFQS: 0.0537
- area with substrate EMLYFQS: 0.0674
- area with substrate EQLYFQS: 0.0854
- area with substrate ERLYFQS: 0.0627
- area with substrate ESLYFQS: 0.0701
- area with substrate EVLYFQS: 0.0572
- area with substrate EWLYFQS: 0.0614
- area with substrate EYLYFQS: 0.0534

Variant: MGESLFKGPRDYNPISSSICHLTNESDGHTTSLYGIGFGPFIITNKHLFRRNNGTLVVQSLHGVFKVKDTTTLQQHLVDGRDMIIIRMPKDFPPFPQKLKFREPQREERICLVTTNFQTKSMSSMVSDTSCTFPSGDGIFWKHWIQTKDGQCGSPLVSTRDGFIVGIHSASNFTNTNNYFTSVPKNFMELLTNQEAQQWVSGWRLNADSVLWGGHKVFLVKPEEPFQPVKEATQL [M219L]
- area with substrate EALYFQS: 0.112
- area with substrate ECLYFQS: 0.127
- area with substrate EDLYFQS: 0.0953
- area with substrate EGLYFQS: 0.0856
- area with substrate EILYFQS: 0.088
- area with substrate EKLYFQS: 0.123
- area with substrate EMLYFQS: 0.112
- area with substrate ESLYFQS: 0.116
- area with substrate ETLYFQS: 0.0629
- area with substrate EVLYFQS: 0.0878
- area with substrate EWLYFQS: 0.0842
- area with substrate EYLYFQS: 0.0909

Variant: MGESLFKGPRDYNPISSSICHLTNESDGHTTSLYGIGFGPFIITNKHLFRRNNGTLVVQSLHGVFKVKDTTTLQQHLVDGRDMIIIRMPKDFPPFPQKLKFREPQREERICLVTTNFQTKSMSSMVSDTSCTFPSGDGIFWKHWIQTKDGQCGSPLVSTRDGFIVGIHSASNFTNTNNYFTSVPKNFMELLTNQEAQQWVSGWRLNADSVLWGGHKVFDVKPEEPFQPVKEATQL [M219D]
- area with substrate EALYFQS: 0.0886
- area with substrate ECLYFQS: 0.0835
- area with substrate EDLYFQS: 0.118
- area with substrate EELYFQS: 0.0772
- area with substrate EFLYFQS: 0.0974
- area with substrate EGLYFQS: 0.0649
- area with substrate EHLYFQS: 0.103
- area with substrate EILYFQS: 0.0762
- area with substrate EKLYFQS: 0.0539
- area with substrate EPLYFQS: 0.11
- area with substrate EQLYFQS: 0.0973
- area with substrate ERLYFQS: 0.0683
- area with substrate ESLYFQS: 0.0891
- area with substrate ETLYFQS: 0.084
- area with substrate EVLYFQS: 0.0746
- area with substrate EWLYFQS: 0.0781
- area with substrate EYLYFQS: 0.0642

Variant: MGESLFKGPRDYNPISSSICHLTNESDGHTTSLYGIGFGPFIITNKHLFRRNNGTLVVQSLHGVFKVKDTTTLQQHLVDGRDMIIIRMPKDFPPFPQKLKFREPQREERICLVTTNFQTKSMSSMVSDTSCTFPSGDGIFWKHWIQTKDGQCGSPLVSTRDGFIVGIHSASNFTNTNNYFTSVPKNFMELLTNQEAQQWVSGWRLNADSVLWGGHKHFMVKPEEPFQPVKEATQL [V217H]
- area with substrate EALYFQS: 0.0577
- area with substrate ECLYFQS: 0.0531
- area with substrate EDLYFQS: 0.0757
- area with substrate EELYFQS: 0.0654
- area with substrate EGLYFQS: 0.0604
- area with substrate EKLYFQS: 0.0559
- area with substrate ELLYFQS: 0.0643
- area with substrate EMLYFQS: 0.0647
- area with substrate EQLYFQS: 0.0575
- area with substrate ERLYFQS: 0.0545
- area with substrate ESLYFQS: 0.0528
- area with substrate ETLYFQS: 0.0571
- area with substrate EVLYFQS: 0.0467
- area with substrate EWLYFQS: 0.055

Variant: MGESLFKGPRDYNPISSSICHLTNESDGHTTSLYGIGFGPFIITNKHLFRRNNGTLVVQSLHGVFKVKDTTTLQQHLVDGRDMIIIRMPKDFPPFPQKLKFREPQREERICLVTTNFQTKSMSSMVSDTSCTFPSGDGIFWKHWIQTKDGQCGSPLVSTRDGFIVGIHSASNFTNTNNYFTSVPKNFMELLTNQEAQQWVSGWRLNADSVLWGGHKNFMVKPEEPFQPVKEATQL [V217N]
- area with substrate EALYFQS: 0.0478
- area with substrate ECLYFQS: 0.0469
- area with substrate EDLYFQS: 0.0652
- area with substrate EELYFQS: 0.0515
- area with substrate EFLYFQS: 0.0681
- area with substrate EGLYFQS: 0.0631
- area with substrate EILYFQS: 0.0606
- area with substrate ELLYFQS: 0.0612
- area with substrate EMLYFQS: 0.0651
- area with substrate EQLYFQS: 0.067
- area with substrate ERLYFQS: 0.0481
- area with substrate ESLYFQS: 0.0568
- area with substrate ETLYFQS: 0.026
- area with substrate EVLYFQS: 0.0638
